{"source": "patent US20250268880A1", "about": "“3-(Hydroxy)-Pyridin-4(1H)-One Compounds and Methods of Making and Using the Same” (Georgia Tech Research Corporation, priority 2018, published 2025)", "test_system": "Vero (a non-transformed cell line as control)", "assay": "Cell viability assay (MTS), Vero", "type": "cell-based", "conditions": "72 h, NI = no inhibition, read-out: Antiproliferative Activity IC50 (μM) VERO", "note": "Where two headings read alike, the source gives them in different places."}
{"smiles": "COc1ccccc1-c1cn(CCCCn2ccc(=O)c(O)c2C)nn1", "note": "[Compound 2g, 3-Hydroxy-1-(4-(4-(2-methoxyphenyl)-1H-1,2,3-triazol-1-y)butyl)-2-methylpyridin-4(1H)-one]", "values": [{"measurement": "IC50", "result": "> 50", "unit": "µM"}]}
{"smiles": "Cc1c(O)c(=O)ccn1CCCCCn1cc(-c2ccc(N(C)C)cc2)nn1", "note": "[Compound 2r, 1-(5-(4-(4-(Dimethylamino)phenyl)-1H-1,2,3-triazol-1-yl)pentyl)-3-hydroxy-2-methylpyridin-4(11)-one]", "values": [{"measurement": "IC50", "result": "> 50", "unit": "µM"}]}
{"smiles": "CC/C(=C(\\c1ccccc1)c1ccc(OCCN(C)Cc2ccc(-c3cn(CCn4ccc(=O)c(O)c4C)nn3)cc2)cc1)c1ccccc1", "note": "[Compound 36a]", "values": [{"measurement": "IC50", "setting": "Chlorocebus sabaeus, Vero", "result": 3.5, "unit": "µM"}]}
{"smiles": "Cc1c(O)c(=O)ccn1C1CCC(CC2CCC(n3ccc(=O)c(O)c3C)CC2)CC1", "note": "(stereo not shown) [drawing 215]", "values": [{"measurement": "IC50", "result": "> 50", "unit": "µM"}]}
